Laboratory results as given in US20260263442A1, “METHOD FOR TREATING L-DOPA-INDUCED DYSKINESIA USING BEFIRADOL” (Neurolixis, Inc., priority 2023, published 2026).

Test system: patients with moderate to severe L-DOPA-induced dyskinesia (LID) in Parkinson's disease
Test: Adverse events, Phase 2a study of NLX-112 versus placebo

Cc1ccc(CNCC2(F)CCN(C(=O)c3ccc(F)c(Cl)c3)CC2)nc1 [NLX-112]
AE causality: Unlikely Related, subjects n (%) (down-titration, N = 15): 2 (13) n (%)
AE severity: Death, events m (down-titration, N = 15): 0
AE severity: Death, subjects n (%) (down-titration, N = 15): 0 n (%)
AE severity: Life-Threatening, events m (down-titration, N = 15): 0
AE severity: Life-Threatening, subjects n (%) (down-titration, N = 15): 0 n (%)
AE severity: Mild, events m (down-titration, N = 15): 3
AE severity: Mild, subjects n (%) (down-titration, N = 15): 1 (6.7) n (%)
AE severity: Moderate, events m (down-titration, N = 15): 3
AE severity: Moderate, subjects n (%) (down-titration, N = 15): 3 (20) n (%)
AE severity: Severe, events m (down-titration, N = 15): 0
AE severity: Severe, subjects n (%) (down-titration, N = 15): 0 n (%)
Any AE leading to WFS, events m (down-titration, N = 15): 0
Any AE leading to WFS, subjects n (%) (down-titration, N = 15): 0 n (%)
Any AE leading to death, events m (down-titration, N = 15): 0
Any AE leading to death, subjects n (%) (down-titration, N = 15): 0 n (%)
Any AE, events m (down-titration, N = 15): 6
Any AE, subjects n (%) (down-titration, N = 15): 4 (27) n (%)
Any SAE, events m (down-titration, N = 15): 0
Any SAE, subjects n (%) (down-titration, N = 15): 0 n (%)
Back pain, events m (down-titration, N = 15): 1
Back pain, subjects n (%) (down-titration, N = 15): 1 (6.7) n (%)
Dissociation, events m (down-titration, N = 15): 0
Dissociation, subjects n (%) (down-titration, N = 15): 0 n (%)
Dizziness, events m (down-titration, N = 15): 0
Dizziness, subjects n (%) (down-titration, N = 15): 0 n (%)
Dyskinesia, events m (down-titration, N = 15): 0
Dyskinesia, subjects n (%) (down-titration, N = 15): 0 n (%)
Fall, events m (down-titration, N = 15): 0
Fall, subjects n (%) (down-titration, N = 15): 0 n (%)
Fatigue, events m (down-titration, N = 15): 0
Fatigue, subjects n (%) (down-titration, N = 15): 0 n (%)
Headache, events m (down-titration, N = 15): 1
Headache, subjects n (%) (down-titration, N = 15): 1 (6.7) n (%)
Insomnia, events m (down-titration, N = 15): 1
Insomnia, subjects n (%) (down-titration, N = 15): 1 (6.7) n (%)
Nausea, events m (down-titration, N = 15): 1
Nausea, subjects n (%) (down-titration, N = 15): 1 (6.7) n (%)
Orthostatic hypotension, events m (down-titration, N = 15): 0
Orthostatic hypotension, subjects n (%) (down-titration, N = 15): 0 n (%)
Parkinsonism, events m (down-titration, N = 15): 0
Parkinsonism, subjects n (%) (down-titration, N = 15): 0 n (%)
Restless legs syndrome, events m (down-titration, N = 15): 0
Restless legs syndrome, subjects n (%) (down-titration, N = 15): 0 n (%)
SAE: CA or BD, events m (down-titration, N = 15): 0
SAE: CA or BD, subjects n (%) (down-titration, N = 15): 0 n (%)
SAE: ILT, events m (down-titration, N = 15): 0
SAE: ILT, subjects n (%) (down-titration, N = 15): 0 n (%)
SAE: OMISE, events m (down-titration, N = 15): 0
SAE: OMISE, subjects n (%) (down-titration, N = 15): 0 n (%)
SAE: PSD/I, events m (down-titration, N = 15): 0
SAE: PSD/I, subjects n (%) (down-titration, N = 15): 0 n (%)
SAE: RPH, events m (down-titration, N = 15): 0
SAE: RPH, subjects n (%) (down-titration, N = 15): 0 n (%)
Vertigo, events m (down-titration, N = 15): 0
Vertigo, subjects n (%) (down-titration, N = 15): 0 n (%)
Vomiting, events m (down-titration, N = 15): 0
Vomiting, subjects n (%) (down-titration, N = 15): 0 n (%)
Infections and infestations (system organ class), events m (human, in vivo, 8 weeks): 5
Infections and infestations (system organ class), subjects n (%) (human, in vivo, 8 weeks): 3 (17%) n (%)
Respiratory tract infection, events m (human, in vivo, 8 weeks): 1
Respiratory tract infection, subjects n (%) (human, in vivo, 8 weeks): 1 (5.6%) n (%)
Urinary tract infection, events m (human, in vivo, 8 weeks): 2
Urinary tract infection, subjects n (%) (human, in vivo, 8 weeks): 1 (5.6%) n (%)
Most common AEs reported by patients on NLX-112 (in vivo): nausea, parkinsonism and headache
Patients with AEs that led to dose reductions or dose interruptions (in vivo): 4
Patients who withdrew consent due to AEs and prematurely discontinued (on and off phenomenon, vomiting and stress, possibly related): One
Proportion of patients experiencing dizziness (same as the placebo group): 11%
Back pain, events m (stable dosing, N = 15): 0
Back pain, subjects n (%) (stable dosing, N = 15): 0 n (%)
Dissociation, events m (stable dosing, N = 15): 1
Dissociation, subjects n (%) (stable dosing, N = 15): 1 (6.7) n (%)
Dizziness, events m (stable dosing, N = 15): 0
Dizziness, subjects n (%) (stable dosing, N = 15): 0 n (%)
Dyskinesia, events m (stable dosing, N = 15): 0
Dyskinesia, subjects n (%) (stable dosing, N = 15): 0 n (%)
Fall, events m (stable dosing, N = 15): 1
Fall, subjects n (%) (stable dosing, N = 15): 1 (6.7) n (%)
Fatigue, events m (stable dosing, N = 15): 1
Fatigue, subjects n (%) (stable dosing, N = 15): 1 (6.7) n (%)
Headache, events m (stable dosing, N = 15): 1
Headache, subjects n (%) (stable dosing, N = 15): 1 (6.7) n (%)
Insomnia, events m (stable dosing, N = 15): 0
Insomnia, subjects n (%) (stable dosing, N = 15): 0 n (%)
Nausea, events m (stable dosing, N = 15): 1
Nausea, subjects n (%) (stable dosing, N = 15): 1 (6.7) n (%)
Orthostatic hypotension, events m (stable dosing, N = 15): 2
Orthostatic hypotension, subjects n (%) (stable dosing, N = 15): 2 (13) n (%)
Parkinsonism, events m (stable dosing, N = 15): 0
Parkinsonism, subjects n (%) (stable dosing, N = 15): 0 n (%)
Restless legs syndrome, events m (stable dosing, N = 15): 1
Restless legs syndrome, subjects n (%) (stable dosing, N = 15): 1 (6.7) n (%)
Vertigo, events m (stable dosing, N = 15): 0
Vertigo, subjects n (%) (stable dosing, N = 15): 0 n (%)
Vomiting, events m (stable dosing, N = 15): 0
Vomiting, subjects n (%) (stable dosing, N = 15): 0 n (%)
AE action: Dose Not Changed, events m (steady state, N = 15): 9
AE action: Dose Not Changed, subjects n (%) (steady state, N = 15): 7 (47) n (%)
AE action: Dose Reduced, events m (steady state, N = 15): 1
AE action: Dose Reduced, subjects n (%) (steady state, N = 15): 1 (6.7) n (%)
AE action: Drug Interrupted, events m (steady state, N = 15): 0
AE action: Drug Interrupted, subjects n (%) (steady state, N = 15): 0 n (%)
AE action: Not Applicable, events m (steady state, N = 15): 1
AE action: Not Applicable, subjects n (%) (steady state, N = 15): 1 (6.7) n (%)
AE causality: Possibly Related, events m (steady state, N = 15): 7
